In US20260201030A1, “ANTIBODY, ANTIBODY-DRUG CONJUGATE THEREOF AND USE THEREOF” (EVOPOINT BIOSCIENCES CO., LTD., priority 2021, published 2026):

Tests used:
[1] = system: NUGC4-Claudin18.2 cells; assay: In-vitro killing activity of ADCs on NUGC4-Claudin18.2 cells; format: cell-based, human; settings: 72 h, CCK8
[2] = system: HEK293T-claudin 18.1 (human) cells; assay: In-vitro killing activity of ADCs on HEK293T-claudin 18.1 (human) cells; format: cell-based; settings: 72 h, CCK8
[3] = system: HEK293T-claudin 18.2 (human) cells; assay: In-vitro killing activity of ADCs on HEK293T-claudin 18.2 (human) cells; format: cell-based; settings: 72 h, CCK8
[4] = system: human gastric cancer cells NUGC-4; assay: In-vivo efficacy of ADCs in NUGC-4 CDX model; design: species or system Balb/c Nude mice; settings: 10 mg/kg i.v. QW*3 wks

| Molecule | killing of NUGC-4-Claudin18.2 cells [1] | killing of HEK293T-claudin18.1 cells [2] | killing of HEK293T-claudin18.2 cells [3] | tumor inhibitory efficacy in the NUGC-4 CDX model ([4]; FIG. 10) | tolerability, effect on the body weight of mice ([4]; FIG. 11) |
| --- | --- | --- | --- | --- | --- |
| conjugated 25C7A5-HZ1 (conjugate) heavy: QVQLVQSGAEVKKPGSSVKVSCKASGYTFTNYWLHWVRQAPGQGLEWMGMMHPISGSSNYAQKFQGRATLTVDKSTSTAYMELSSLRSEDTAVYYCARGLLSAMDYWGQGTLVTVSS[human IgG1 constant region omitted here] light: EIVLTQSPATLSLSPGERATLSCKASENVKTYVSWYQQKPGQSPRLLIYEASNRYTGVPARFSGSGSATDFTLTISSLEPEDFAVYFCGQTYSFPPTFGQGTKVEIKRTVAAPSVFIFPPSDEQLKSGTASVVCLLNNFYPREAKVQWKVDNALQSGNSQESVTEQDSKDSTYSLSSTLTLSKADYEKHKVYACEVTHQGLSSPVTKSFNRGEC | effective in killing | substantially did not kill | effective in killing | – | – |
| conjugated 25C7A5-HZ2 (conjugate) heavy: QVQLVESGAEVKKPGSSVKVSCKASGYTFTNYWLHWVRQAPGQGLEWMGMMHPISGSSNYAQKFQGRATLTVDKSTSTAYMELSSLRSEDTAVYYCARGLLSAMDYWGQGTLVTVSS[human IgG1 constant region omitted here] light: EIVLTQSPATLSLSPGERATLSCKASENVKTYVSWYQQKPGQSPRLLIYEASNRYTGVPARFSGSGSATDFTLTISSLEPEDFAVYFCGQTYSFPPTFGQGTKVEIKRTVAAPSVFIFPPSDEQLKSGTASVVCLLNNFYPREAKVQWKVDNALQSGNSQESVTEQDSKDSTYSLSSTLTLSKADYEKHKVYACEVTHQGLSSPVTKSFNRGEC | effective in killing | substantially did not kill | effective in killing | – | – |
| 25C7A5-hz1-B81: ADC of 25C7A5-HZ1 with toxin linker, DAR 7.97 (conjugate) heavy: QVQLVQSGAEVKKPGSSVKVSCKASGYTFTNYWLHWVRQAPGQGLEWMGMMHPISGSSNYAQKFQGRATLTVDKSTSTAYMELSSLRSEDTAVYYCARGLLSAMDYWGQGTLVTVSS[human IgG1 constant region omitted here] light: EIVLTQSPATLSLSPGERATLSCKASENVKTYVSWYQQKPGQSPRLLIYEASNRYTGVPARFSGSGSATDFTLTISSLEPEDFAVYFCGQTYSFPPTFGQGTKVEIKRTVAAPSVFIFPPSDEQLKSGTASVVCLLNNFYPREAKVQWKVDNALQSGNSQESVTEQDSKDSTYSLSSTLTLSKADYEKHKVYACEVTHQGLSSPVTKSFNRGEC | – | – | – | significant efficacy | well tolerated by the mice overall, with no adverse reactions |
